The values that follow come from paper PMC4336329 (PLoS ONE, 2015).

Among all 310,000 compounds or so, about 2,200 (0.71%) showed an effect of 50% or more. The effect is printed as a negative number. The list shows a part of the results.

The target in the test is human ether-à-go-go-related gene (hERG) potassium channel (human, UniProt Q12809). Put plainly: primary screen, population patch clamp on CHO cells stably expressing hERG.
human ether-à-go-go-related gene (hERG) potassium channel, sequence (Q12809 whole entry, looked up): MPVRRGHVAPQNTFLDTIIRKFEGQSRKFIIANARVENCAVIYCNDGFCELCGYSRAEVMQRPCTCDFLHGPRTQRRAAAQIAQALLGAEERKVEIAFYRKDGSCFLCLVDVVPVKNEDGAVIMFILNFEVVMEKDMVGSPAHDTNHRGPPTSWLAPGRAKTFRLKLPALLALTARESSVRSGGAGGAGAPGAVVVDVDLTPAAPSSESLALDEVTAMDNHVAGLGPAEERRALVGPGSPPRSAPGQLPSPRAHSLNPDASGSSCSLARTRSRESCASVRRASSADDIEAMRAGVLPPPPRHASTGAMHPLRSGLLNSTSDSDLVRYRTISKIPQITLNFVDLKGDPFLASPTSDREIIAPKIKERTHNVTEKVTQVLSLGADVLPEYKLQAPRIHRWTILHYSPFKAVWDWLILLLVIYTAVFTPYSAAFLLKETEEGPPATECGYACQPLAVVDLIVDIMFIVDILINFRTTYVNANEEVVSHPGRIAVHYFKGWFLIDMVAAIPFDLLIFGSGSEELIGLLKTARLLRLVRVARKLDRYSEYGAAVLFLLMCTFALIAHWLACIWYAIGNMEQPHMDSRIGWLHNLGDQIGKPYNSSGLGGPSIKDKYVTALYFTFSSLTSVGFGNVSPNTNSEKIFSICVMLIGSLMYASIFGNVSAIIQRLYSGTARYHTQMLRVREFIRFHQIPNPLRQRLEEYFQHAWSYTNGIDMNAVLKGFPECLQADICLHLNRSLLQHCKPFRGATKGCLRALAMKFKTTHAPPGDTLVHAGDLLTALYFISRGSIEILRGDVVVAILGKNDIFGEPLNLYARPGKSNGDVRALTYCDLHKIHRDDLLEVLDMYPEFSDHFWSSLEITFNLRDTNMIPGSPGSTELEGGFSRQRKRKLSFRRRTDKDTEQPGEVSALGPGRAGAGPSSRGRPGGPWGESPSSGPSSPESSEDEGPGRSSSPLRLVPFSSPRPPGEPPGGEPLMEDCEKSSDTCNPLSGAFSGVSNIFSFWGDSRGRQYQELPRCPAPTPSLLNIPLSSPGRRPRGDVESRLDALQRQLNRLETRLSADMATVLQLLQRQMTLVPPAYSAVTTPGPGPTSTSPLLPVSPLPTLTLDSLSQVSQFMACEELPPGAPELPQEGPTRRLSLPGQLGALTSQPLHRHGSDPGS
For `c1ccc(-n2nnnc2OCCOc2nnnn2-c2ccccc2)cc1`, the “hERG current change (%, negative = inhibition) at 1uM” value is 3.62%.
In the case of `O=C(c1cc(COc2cccc(C(F)(F)F)c2)on1)N1CCC(c2ccccc2)CC1`, the “hERG current change (%, negative = inhibition) at 1uM” value came to 6%.
As for `O=C(COC(=O)COc1ccc2ccccc2c1)NCC(F)(F)F`, the “hERG current change (%, negative = inhibition) at 1uM” value came to 1.83%.
Turning to `CCc1cc2c(=O)c(-c3cnn(-c4ccccc4)c3)c(C(F)(F)F)oc2c(CN(C)C)c1O`, the “hERG current change (%, negative = inhibition) at 1uM” value came to 10.7%.
As for `COc1ccc(N(Cc2nnc3n2CCCCC3)C(=O)Nc2ccccc2)cc1`, the figure is 7.17%; as for `CCC1Oc2ccc(C)cc2N(CC(=O)NCc2ccco2)C1=O` (stereo not shown), 7.37%; as for `COc1ccc(C2(CNC(=O)c3ccc(Br)o3)CCOCC2)cc1`, 13.5%.
Take `CC(=O)c1c(C)[nH]c(C(=O)NCc2cccc(Cl)c2)c1C`: the “hERG current change (%, negative = inhibition) at 1uM” value came to 10.4%.
Consider `COc1ccc(C(=O)Nc2ccc(N3CCN(C(=O)c4ccccc4C)CC3)cc2)cc1`, for which the “hERG current change (%, negative = inhibition) at 1uM” value was found to be 9.54%.
On to `CC1CN(S(=O)(=O)c2ccc(C(=O)Nc3nccs3)cc2)CC(C)O1` (stereo not shown), for which the “hERG current change (%, negative = inhibition) at 1uM” value amounted to 12.1%.
As to `Cc1ccc(OCCNC(=O)c2cc(=O)[nH]c3ccccc23)cc1`, the “hERG current change (%, negative = inhibition) at 1uM” value is recorded as 10.6%.
As for `CC(=O)Nc1cccc(OCCCNC(=O)c2cccc3ccccc23)c1`, the “hERG current change (%, negative = inhibition) at 1uM” value is 16.5%.
Regarding `Cc1cc(C)nc(N2CCC(C(=O)O)CC2)n1`, the “hERG current change (%, negative = inhibition) at 1uM” value is -1.09%.
As to `CC(C)(C)c1cc(C(=O)NNc2ccc(OC(F)(F)F)cc2)n(Cc2ccccc2)n1`, the “hERG current change (%, negative = inhibition) at 1uM” value is on record as 12.2%.
For `COc1ccc([C@@H]2[C@@H]3C(=O)N(C(C)(C)C)C(=O)[C@@H]3[C@]3(Cc4ccccc4)C(=O)N(c4ccc(OC)cc4)C(=O)N23)cc1`, the “hERG current change (%, negative = inhibition) at 1uM” value is given as 19.1%.
As to `Cc1cc(C)nc(N2CCCC(C(=O)NC(C)C)C2)n1` (stereo not shown), the “hERG current change (%, negative = inhibition) at 1uM” value is listed as 4.2%.
On to `COc1cccc(CN2CCN(Cc3cc(OC)c(OC)cc3[N+](=O)[O-])CC2)c1.O=C(O)C(=O)O`, for which the “hERG current change (%, negative = inhibition) at 1uM” value is -18.5%.
As for `CCOC(=O)Cc1csc(NS(=O)(=O)c2cc(Cl)ccc2Cl)n1`, the “hERG current change (%, negative = inhibition) at 1uM” value is recorded as 17.4%.
In the case of `O=C(Cn1c(C(F)(F)F)nc2ccccc21)N/N=C/c1ccco1`, the “hERG current change (%, negative = inhibition) at 1uM” value worked out at 7.11%.
For the compound `Cc1nnc(N2CCCC(C(=O)NCc3ccccc3F)C2)c2nn(-c3ccccc3)c(C)c12` (stereo not shown), the “hERG current change (%, negative = inhibition) at 1uM” value is -3.35%.
As for `CC(=O)Nc1c(-c2ccccc2)nc2cc(C)ccn12`, the “hERG current change (%, negative = inhibition) at 1uM” value is reported as 11.7%.
Then `COc1ccc(CCN(C)C(=O)c2oc3ccccc3c2C)cc1OC`, with 11.3%.
On to `Cc1cccc(CCNC(=O)C2CCN(S(=O)(=O)N3CCOCC3)CC2)c1`, for which the “hERG current change (%, negative = inhibition) at 1uM” value was found to be 10.3%.
As to `Cc1c(C(=O)N2CCOCC2)c(S(=O)(=O)Nc2ccc(OC(F)(F)F)cc2)c(C)n1C`, the “hERG current change (%, negative = inhibition) at 1uM” value is 4.73%.
Then `COc1ccccc1CNC(=O)CCC(=O)N1CCOc2ccc(Cl)cc21`, with 10.9%; and `O=C(Cn1ncc2c3ccccc3n(Cc3ccccc3)c2c1=O)NC1CCCC1`, with 8.9%; and `COc1ccc(C(CNC(=O)c2oc3ccc(C)cc3c2C)N2CCCCC2)cc1` (stereo not shown), with 11.2%.
As for `COc1cc(S(=O)(=O)n2nc(C)cc2C)c(OC)cc1Cl`, the figure is 4.33%; as for `O=C1CCN(C(=O)Nc2ccccc2Cl)N1`, 12%.
`Cc1ccccc1OCC(=O)N1N=C(C(F)(F)F)CC1(O)C(C)(C)C` (stereo not shown): the “hERG current change (%, negative = inhibition) at 1uM” value came out at 12.2%.
Turning to `CCOC(=O)N1CCC(=NNC(=O)c2ccc(O)cc2)CC1`, the “hERG current change (%, negative = inhibition) at 1uM” value turned out to be 3.38%.
Take `O=C(c1ccccc1NS(=O)(=O)c1ccc2c(c1)OCCO2)N1CCOCC1`: the “hERG current change (%, negative = inhibition) at 1uM” value turned out to be 10.6%.
Take `O=C(CCC(=O)N1CCN(S(=O)(=O)c2cccc(F)c2)CC1)c1cccs1`: the “hERG current change (%, negative = inhibition) at 1uM” value was 10.1%.
For `CC(NC(=O)C1(c2cccs2)CCOCC1)c1ccccc1` (stereo not shown), the “hERG current change (%, negative = inhibition) at 1uM” value is reported as 14.1%.
Turning to `COc1ccc(-c2nc(-c3ccccc3)c(-c3cc([N+](=O)[O-])ccc3C)[nH]2)cc1O`, the “hERG current change (%, negative = inhibition) at 1uM” value was 9.05%.
For the compound `COc1ccccc1NC(=O)C(C)OC(=O)CSCC(=O)Nc1cc(C)on1` (stereo not shown), the “hERG current change (%, negative = inhibition) at 1uM” value is listed as 8.19%.
In the case of `CCOC(=O)C1CCN(Cc2cc(C(C)(C)C)c(O)c(C(C)(C)C)c2)CC1`, the “hERG current change (%, negative = inhibition) at 1uM” value was -14%.
Regarding `O=C(OCCCN=C1NS(=O)(=O)c2ccccc21)c1ccccc1F`, the “hERG current change (%, negative = inhibition) at 1uM” value stood at 4.96%.
For the compound `COc1ccccc1C(=O)Nc1nc2cc3c(cc2s1)OCO3`, the “hERG current change (%, negative = inhibition) at 1uM” value was 17.1%.
As to `O=C(c1ccc(F)cc1)C1CCN(C(=O)Nc2ccc(F)cc2)CC1`, the “hERG current change (%, negative = inhibition) at 1uM” value is listed as -10.8%.
`CCN(CC)C(=O)C(=O)N/N=C/c1ccc(C(=O)O)cc1`: the “hERG current change (%, negative = inhibition) at 1uM” value is 8.42%.
Take `Cc1cccc(NS(=O)(=O)c2nnc(NC(=O)C3CCCCC3)s2)c1`: the “hERG current change (%, negative = inhibition) at 1uM” value worked out at 11.7%.
Then `C/C(=N\NC(=O)c1nnn(-c2nonc2N)c1C(C)C)c1ccncc1`, with 8.4%; and `Cc1onc(-c2ccccc2Cl)c1C(=O)N(Cc1ccccc1)C(C)C`, with 12.4%.
With `Cc1cccc(/C=C(\C(=O)C(=O)O)c2ccc3ccccc3n2)c1`, the “hERG current change (%, negative = inhibition) at 1uM” value was determined as 12.5%.
Consider `NC(=O)c1cnn2c(C(F)(F)F)cc(-c3ccc(F)cc3)nc12`, for which the “hERG current change (%, negative = inhibition) at 1uM” value is given as -3.31%.
For `CC1=NN(c2nc3ccccc3s2)C(O)(C(F)(F)F)C1` (stereo not shown), the “hERG current change (%, negative = inhibition) at 1uM” value is 11.3%.
On to `Cc1nc2c(C(F)(F)F)cccc2c2c1CCS2`, for which the “hERG current change (%, negative = inhibition) at 1uM” value came to 5.28%.
Take `O=[N+]([O-])c1ccc(/C=N/N/C(=N/c2ccccn2)c2ccccn2)cc1`: the “hERG current change (%, negative = inhibition) at 1uM” value was found to be 7.3%.
For `Cc1ccc(SCC(=O)NCCc2ccc(F)cc2)cc1`, the “hERG current change (%, negative = inhibition) at 1uM” value turned out to be 17.1%.
Then `O=C(NC(=O)c1ccccc1)OCC(F)(F)F`, with 12.2%; and `CN(Cc1cn(Cc2ccccc2)nc1-c1ccc2c(c1)OCO2)Cc1nccn1C`, with -6.55%; and `O=C(Nc1cc(Cl)ccc1Oc1ccccc1)c1ccc(F)cc1`, with -1.7%.
As for `Cc1ccc(C(O)P(=O)(OCCC(C)C)c2ccc(N(C)C)cc2)cc1` (stereo not shown), the figure is 14%; as for `COc1cc(S(=O)(=O)N(C)Cc2ccc3c(c2)OCCO3)ccc1NC(C)=O`, 8.5%.
